Experimental data taken from PMC4336329 (PLoS ONE, 2015).
About 2,200 (0.71%) of roughly 310,000 compounds showed an effect of 50% or more. The effect is printed as a negative number. This is one part of the list.

target: human ether-à-go-go-related gene (hERG) potassium channel (human, UniProt Q12809); assay: primary screen, population patch clamp on CHO cells stably expressing hERG
Sequence (Q12809 whole entry, looked up): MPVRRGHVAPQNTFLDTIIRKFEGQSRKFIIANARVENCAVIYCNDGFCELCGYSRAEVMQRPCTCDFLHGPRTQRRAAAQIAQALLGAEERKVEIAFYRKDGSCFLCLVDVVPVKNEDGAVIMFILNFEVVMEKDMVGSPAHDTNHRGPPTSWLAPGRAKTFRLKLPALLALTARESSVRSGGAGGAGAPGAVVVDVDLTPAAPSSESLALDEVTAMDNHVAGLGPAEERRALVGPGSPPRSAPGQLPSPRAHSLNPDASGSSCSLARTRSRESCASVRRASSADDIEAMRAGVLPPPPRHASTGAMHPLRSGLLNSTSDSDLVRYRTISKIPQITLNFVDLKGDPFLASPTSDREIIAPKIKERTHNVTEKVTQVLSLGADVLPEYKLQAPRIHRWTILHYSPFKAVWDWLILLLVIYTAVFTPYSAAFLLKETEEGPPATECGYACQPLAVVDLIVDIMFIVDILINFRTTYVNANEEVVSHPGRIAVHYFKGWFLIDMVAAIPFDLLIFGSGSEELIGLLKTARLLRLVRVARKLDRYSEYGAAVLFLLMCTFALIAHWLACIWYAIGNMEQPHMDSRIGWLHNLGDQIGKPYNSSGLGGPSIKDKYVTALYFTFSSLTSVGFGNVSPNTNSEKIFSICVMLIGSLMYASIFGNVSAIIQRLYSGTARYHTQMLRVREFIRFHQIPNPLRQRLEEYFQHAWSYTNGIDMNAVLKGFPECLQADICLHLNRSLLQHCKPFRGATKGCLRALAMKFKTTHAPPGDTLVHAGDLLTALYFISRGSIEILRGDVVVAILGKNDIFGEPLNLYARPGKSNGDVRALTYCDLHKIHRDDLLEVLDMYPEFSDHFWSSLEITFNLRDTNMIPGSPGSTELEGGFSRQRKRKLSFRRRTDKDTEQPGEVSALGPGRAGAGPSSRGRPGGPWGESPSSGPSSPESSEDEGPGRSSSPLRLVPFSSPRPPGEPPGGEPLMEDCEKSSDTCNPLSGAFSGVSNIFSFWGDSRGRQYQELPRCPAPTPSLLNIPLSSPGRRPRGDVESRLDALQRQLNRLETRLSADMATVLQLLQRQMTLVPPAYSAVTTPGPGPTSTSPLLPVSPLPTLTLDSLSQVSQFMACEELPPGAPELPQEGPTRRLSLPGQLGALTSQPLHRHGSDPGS

Row | SMILES | hERG current change (%, negative = inhibition) at 1uM
1 | CCOc1ccc2cc(C#N)c(SCC(=O)NC(C)CC)nc2c1 (centres unmarked) | -1.17%
2 | CCOC(=O)N1CCC(NC(=O)c2cc(C(=O)Nc3ccc(OCC)cc3)ccc2CO)CC1 | 14.7%
3 | CCN1CCN(c2nc(-c3cccs3)nc3ccccc23)CC1 | -66.2%
4 | CCOC(=O)C1CCCN(CCC(=O)Nc2cc(C)cc(C)c2)C1 (centres unmarked) | -9.62%
5 | Cc1ccc(CCNC(=O)CCSCc2ccc(Cl)cc2)cc1 | 15.9%
6 | C/C(=N\Nc1ccc(Cl)c(C(=O)O)c1)c1cc2ccccc2o1 | 5.9%
7 | CC(C)(C)NC(=O)Cn1nc(C(F)(F)F)c2c1CCCC2 | 8.82%
8 | C/C=C1/C[C@@H](C)[C@](O)(CO)C(=O)OCC2=CCN3CC[C@@H](OC1=O)[C@@H]23 | 14.2%
9 | O=C(COc1ccccc1)N1CCN(S(=O)(=O)c2cccc([N+](=O)[O-])c2)CC1 | -9.13%
10 | CCC1=NC(c2ccc(OC)cc2)N(O)C1(C)C (centres unmarked) | 16.6%
11 | O=C(COc1ccc(-n2cnnn2)cc1)NCCc1ccc(F)cc1 | -5.74%
12 | Cc1ccc(NS(=O)(=O)c2cccc(C(=O)NCC(c3cccs3)N3CCOCC3)c2)cc1 (centres unmarked) | 4.61%
13 | O=C(CCCNC(=O)/C(=C\c1ccc(F)cc1)NC(=O)c1ccccc1)OCc1ccccc1 | -39.2%
14 | CCc1ccc(NC(=O)c2cnn(-c3ccccc3)c2C2CCNCC2)cc1.Cl | -8.84%
15 | Cc1ccc(S(=O)(=O)N2CCC(Oc3ccc(-n4cnnn4)cc3)CC2)cc1 | 9.31%
16 | COc1ccc(Cc2nnc(NC(=O)C(C)C)s2)cc1 | 13.4%
17 | S=c1[nH]nc(-c2n[nH]c3c2CCC3)n1/N=C/C=C/c1ccccc1 | 12%
18 | C=CCN1C(=O)C2(c3ccccc31)C1CCCC=C1C(C#N)=C(N)C2(C#N)C#N (centres unmarked) | 9.45%
19 | O=C(Nc1nnc(-c2ccccc2)o1)Nc1ccccc1Cl | 1.8%
20 | COc1cc(/C=C/CN2CCN(Cc3ccc(C)o3)C(CCO)C2)ccc1O (centres unmarked) | 5.85%
21 | Cc1c(NC2=NC(C)(C)Cc3ccccc32)c(=O)n(-c2ccccc2)n1C | -0.293%
22 | Cc1ccc(Cl)cc1N1CCN(c2cccc[n+]2C)CC1.[I-] | -6.18%
23 | Cc1ccccc1CSCC(=O)NNC(=S)NCC1CCCO1 (centres unmarked) | 2.55%

Row | SMILES | hERG current change (%, negative = inhibition) at 1uM
24 | COC(=O)c1ccc(NC(=S)NCCc2ccccc2)cc1 | 14.6%
25 | CN(C)S(=O)(=O)Nc1ccc2c(c1)Cc1ccccc1-2 | 13%
26 | OCCC1CN(Cc2cccn2-c2nccs2)CCN1C1CCCCC1 (centres unmarked) | -4.43%
27 | CCc1ccccc1NC(=O)CNC(=O)CSC(=S)N1CCCC1 | 8.94%
28 | Cc1nnc(OCc2nc3ccccc3n2C)c2ccccc12 | -10.1%
29 | O=C(C1=NN[C@@H]2C(=O)N(c3cccc(F)c3)C(=O)[C@H]12)c1ccc2ccccc2n1 | 6.85%
30 | CC(=O)Nc1ccc(C2Nc3ccccc3C(=O)N2C2CCCCC2)cc1 (centres unmarked) | 12.2%
31 | COC(=O)c1sc2ccccc2c1NC(=O)c1ccc(S(=O)(=O)N2CC(C)CC(C)C2)cc1 (centres unmarked) | 0.615%
32 | CN(c1ccc(C(=O)N2CCOCC2)cc1)S(C)(=O)=O | -0.669%
33 | CSc1ccc(C(=O)C2CCCN(C(=O)CCCn3cncn3)C2)cc1 (centres unmarked) | -5.25%
34 | CCN(CC)C(=S)SSC(=S)N(CC)CC | 17.2%
35 | Cc1ccc(C)c(NC(=S)NCC(c2cccnc2)N2CCOCC2)c1 (centres unmarked) | 6.28%
36 | CCn1ncc(CNC(=O)CCCSc2nc(-c3ccco3)cc(C(F)(F)F)n2)c1C | 8.65%
37 | CCOC(=O)c1ccc(N2C(=O)CC(N(C)Cc3ccccc3)C2=O)cc1 (centres unmarked) | 12.6%
38 | CCOC(=O)CSc1nc2ccccc2c(=O)n1CC | -1.18%
39 | CC(C)(C)C(=O)OCc1nc(-c2ccc(O)c(O)c2)cs1 | 5.91%
40 | CCN(CCNC(=O)C1CCN(S(=O)(=O)c2cccc3cccnc23)CC1)c1ccccc1 | -7.93%
41 | COc1cc2[nH]cc(C(=O)NCc3ccccc3)c(=O)c2cc1OC | 13.2%
42 | CC(=O)N(c1ccccc1)c1nc(C)cc(C)c1C#N | 13%
43 | Cc1cccc(NC(=O)C2CCN(S(=O)(=O)c3cccs3)CC2)c1 | 10.2%
44 | CN1C(=O)C(C)(C)c2cc(S(=O)(=O)N3CCN(c4ccc(F)cc4)CC3)ccc21 | 14.3%
45 | COc1ccc(NC(=O)c2ccc(-n3cncn3)c([N+](=O)[O-])c2)cc1 | 13.6%
46 | COc1ccc(-c2nn(-c3ccccc3)cc2C(=O)NCC2CCCO2)cc1 (centres unmarked) | 11.2%

Row | SMILES | hERG current change (%, negative = inhibition) at 1uM
47 | CC1(C)CC(=O)c2ccc(O)cc2O1 | 11.3%
48 | COc1ccc(C(=O)NC(Cc2ccc(OC(=O)c3ccc(OC)cc3)cc2)C(=O)O)cc1 (centres unmarked) | 13.6%
49 | CCOC(=O)/C=C/C(=O)OCC(=O)Nc1cccc(Cl)c1Cl | 5.39%
50 | Cn1cccc1Cc1nnc(SCC(=O)N2CCCC2)n1CCc1ccccc1 | 10.7%
51 | Cn1nc(C(C)(C)C)cc1C(=O)O | 6.64%
52 | O=C(NC(Cc1ccccc1)C(=O)NCCc1ccccn1)c1cccs1 (centres unmarked) | 7.71%
53 | COc1cccc(-c2nn(C)c3sc(C(=O)NCCCN(C)Cc4ccccc4)cc23)c1 | 9.14%
54 | CS(=O)(=O)N(CC(=O)Nc1ccc(S(=O)(=O)N2CCOCC2)cc1)c1ccccc1Cl | 10.7%
55 | C[C@@H]1C=C(C(=O)NC2CC2)O[C@H](OCc2ccc(CO)cc2)C1 | 8.28%
56 | C=CCn1c(C)cc(C(=O)CSc2nc(N)cc(N)n2)c1C | 12.9%
57 | O=Cc1c(NCc2ccc(F)cc2)c2ccccc2[nH]c1=O | 2.69%
58 | O=C(Nc1cccc2ccccc12)c1cn(-c2ccccc2)nc1-c1cccs1 | 13.7%
59 | CCS(=O)(=O)N1CCCC(C(=O)NCCCOC(C)C)C1 (centres unmarked) | 5.97%
60 | COc1ccc(NC(=S)NN2CCOCC2)cc1OC | -8.02%
61 | CCCN(C(=O)CSc1nc(C2CC2)n(-c2ccccc2)n1)C1CCS(=O)(=O)C1 (centres unmarked) | 4.85%
62 | COc1ccc(OC)c(NC(=O)CSc2ccc(-c3cccnc3)nn2)c1 | -3.81%
63 | CN(CC(=O)Nc1ccc(N2CCOCC2)cc1)C(=O)CCc1ccccc1Cl | -3.41%
64 | O=[N+]([O-])c1cccc(N/N=C/c2cc([N+](=O)[O-])ccc2O)c1 | 4.49%
65 | O=C(CSc1ccccc1)Nc1nccs1 | -2.3%
66 | CCn1c(CCCNC(=O)c2cccs2)nc2ccccc21 | 8.09%
67 | Cc1cc(=O)oc2cc(OCC(=O)OCC(=O)NC3CC3)ccc12 | 9.91%
68 | O=c1[nH]c(C(Cl)Cl)nc2sc3c(c12)CCN(Cc1ccccc1)C3 | 2.4%
69 | O=C(COc1ccc(S(=O)(=O)NC2CCCCC2)cc1)NCCC1=CCCCC1 | 8.42%

Row | SMILES | hERG current change (%, negative = inhibition) at 1uM
70 | COc1ccc(NC(=O)Nc2ccccc2F)c([N+](=O)[O-])c1 | 9.17%
71 | CC(C)C(OC(=O)c1nsc(Cl)c1Cl)C(=O)NCC1CCCO1 (centres unmarked) | 8.55%
72 | Cc1ccc(NC(=O)C(c2ccc(Cl)cc2Cl)N2CCCC2)cc1 (centres unmarked) | 5.63%
73 | COc1ccc2nc(C)cc(SCC(=O)N3CCCCC3)c2c1 | -4.35%
74 | Cc1cccc(N2C(=O)/C(=C\c3ccc(C(=O)O)cc3)c3ccccc3C2=O)c1 | 11.4%
75 | CCN(C(C)=O)c1ccc(Oc2nc(OC)cc(OC)n2)cc1 | -16.6%
76 | O=c1cc(-c2c(F)c(F)c(F)c(F)c2F)oc2c(F)c(F)c(F)c(F)c12 | -4.46%
77 | CCc1ccc(N(CC(=O)NCc2cccnc2)S(=O)(=O)c2ccccc2)cc1 | 5.66%
78 | CN(c1ccccc1)S(=O)(=O)c1ccccc1Br | 16%
79 | COc1ccc(NC(=O)CSc2nc(C)cs2)c(OC)c1 | 9.43%
80 | C/C(=N\Nc1cc(N2CCCCC2)nc(C)n1)c1ccc(Br)cc1 | 3.91%
81 | C=CCn1c(-c2ccccc2)cc(SC)c(C#N)c1=O | 10.4%
82 | CC(OC(=O)c1ccc2ncsc2c1)C(=O)Nc1ncc(Cl)cc1Cl (centres unmarked) | 8.58%
83 | CC(=O)N1CCCc2cc(S(=O)(=O)N(C)CCC#N)ccc21 | 7.46%
84 | CCCOC(=O)c1ccc(NC(=O)CSC2=Nc3ccccc3C3CC=NN23)cc1 (centres unmarked) | 21.4%
85 | COc1cc2ccccc2cc1C(=O)N(CCN(C)C)c1nc2ccc(C)cc2s1.Cl | 17%
86 | CCCn1nc(NC(=O)c2cccs2)c2cc3cc(C)ccc3nc21 | 11.5%
87 | CCC(C)(C)NC(=O)C(c1ccc(OC)cc1)N(C(=O)CCC(=O)Nc1cc(C)on1)c1ccccc1OC (centres unmarked) | 2.39%
88 | CC(=O)Nc1ccc(NC(=O)COC(=O)c2ccccn2)cc1 | 20.6%
89 | COc1ccc(S(=O)(=O)N2CCC(C(=O)N3CCCC3)CC2)cc1C | 15.3%
